According to patent US6339078B1, “Methods of prevention and treatment of ischemic damage” (University of Florida Research Foundation, Inc., priority 1999, dated 2002):

System: ovariectomized rats, ischemia induced by middle cerebral artery occlusion (MCAO)
Test: Ischemic area in brain slices after MCAO, estrogen pretreatment
Format: in vivo, rat
Conditions: 10 μg/kg sc injection 2 hours prior to ischemic event, sacrifice at 24 hours

Compound: C[C@]12CC[C@@H]3c4ccc(O)cc4CC[C@H]3[C@@H]1CC[C@@H]2O [17β-estradiol]
- reduction of ischemic lesion size of the whole coronal section (region C (9 mm)): 46.3%
- reduction of ischemic lesion size of the whole coronal section (region D (11 mm)): 44.1%
